Test results as given in the supplement of paper PMC8728848.
This is one part of the list.

Tests used:
Experiment in all cases: glycan array binding signal (z-score within array); higher = stronger binding
Details in all cases: glycan notation: IUPAC condensed, linker removed
[1] = target: Man(a1-2)Man(a1-3)[Man(a1-2)Man(a1-6)]Man(a1-6)[Man(a1-2)Man(a1-2)Man(a1-3)]Man
Procedure, shortened: (§1)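 Glycan array data were curated from 3228 arrays in the Consortium for Functional Glycomics database and kept only where the protein sequence was available. Glycan names were converted to IUPAC-condensed notation, and columns mapping to the same glycan were averaged. The binding signal is a within-array Z-score, averaged across arrays of the same protein sequence at different concentrations or buffers and across linkers. Negative Z-scores can be read as non-binding.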

[2] = target: Man(a1-2)Man(a1-3)[Man(a1-2)Man(a1-6)]Man(a1-6)[Man(a1-2)Man(a1-2)Man(a1-3)]Man(b1-4)GlcNAc(b1-4)GlcNAc
Procedure, shortened: as §1

[3] = target: Man(a1-2)Man(a1-3)[Man(a1-6)]Man(a1-6)[Man(a1-2)Man(a1-3)]Man(b1-4)GlcNAc(b1-4)GlcNAc
Procedure, shortened: as §1

[4] = target: Man(a1-2)Man(a1-6)[Man(a1-3)]Man(a1-6)[Man(a1-2)Man(a1-2)Man(a1-3)]Man
Procedure, shortened: as §1

[5] = target: Man(a1-2)Man(a1-6)[Man(a1-3)]Man(a1-6)[Man(a1-2)Man(a1-2)Man(a1-3)]Man(b1-4)GlcNAc(b1-4)GlcNAc
Procedure, shortened: as §1

Man(a1-3)[Man(a1-6)]Man = target: Man(a1-3)[Man(a1-6)]Man
Procedure, shortened: as §1

[6] = target: Man(a1-3)[Man(a1-6)]Man(a1-6)[Man(a1-2)Man(a1-3)]Man(b1-4)GlcNAc(b1-4)GlcNAc
Procedure, shortened: as §1

[7] = target: Man(a1-3)[Man(a1-6)]Man(a1-6)[Man(a1-3)]Man
Procedure, shortened: as §1

[8] = target: Man(a1-3)[Man(a1-6)]Man(a1-6)[Man(a1-3)]Man(b1-4)GlcNAc(b1-4)GlcNAc
Procedure, shortened: as §1

[9] = target: Man(a1-3)[Man(a1-6)]Man(b1-4)GlcNAc(b1-4)GlcNAc
Procedure, shortened: as §1

[10] = target: Man(a1-3)[Man(a1-6)]Man(b1-4)GlcNAc(b1-4)[Fuc(a1-6)]GlcNAc
Procedure, shortened: as §1

Man(a1-6)Man = target: Man(a1-6)Man
Procedure, shortened: as §1

Man(b1-4)GlcNAc = target: Man(b1-4)GlcNAc
Procedure, shortened: as §1

MurNAc(b1-4)GlcNAc = target: MurNAc(b1-4)GlcNAc
Procedure, shortened: as §1

Neu5Ac(a2-3)Gal = target: Neu5Ac(a2-3)Gal
Procedure, shortened: as §1

[11] = target: Neu5Ac(a2-3)Gal(b1-3)GalNAc
Procedure, shortened: as §1

[12] = target: Neu5Ac(a2-3)Gal(b1-3)GalNAc(b1-3)Gal(a1-4)Gal(b1-4)Glc
Procedure, shortened: as §1

[13] = target: Neu5Ac(a2-3)Gal(b1-3)GalNAc(b1-4)Gal(b1-4)Glc
Procedure, shortened: as §1

[14] = target: Neu5Ac(a2-3)Gal(b1-3)GalNAc(b1-4)[Neu5Ac(a2-3)]Gal(b1-4)Glc
Procedure, shortened: as §1

[15] = target: Neu5Ac(a2-3)Gal(b1-3)GalNAc(b1-4)[Neu5Ac(a2-8)Neu5Ac(a2-3)]Gal(b1-4)Glc
Procedure, shortened: as §1

[16] = target: Neu5Ac(a2-3)Gal(b1-3)GalNAc6S
Procedure, shortened: as §1

[17] = target: Neu5Ac(a2-3)Gal(b1-3)GlcNAc
Procedure, shortened: as §1

[18] = target: Neu5Ac(a2-3)Gal(b1-3)GlcNAc(b1-2)Man
Procedure, shortened: as §1

[19] = target: Neu5Ac(a2-3)Gal(b1-3)GlcNAc(b1-2)Man(a1-3)[GlcNAc(b1-4)][Neu5Ac(a2-3)Gal(b1-3)GlcNAc(b1-2)Man(a1-6)]Man(b1-4)GlcNAc(b1-4)GlcNAc
Procedure, shortened: as §1

[20] = target: Neu5Ac(a2-3)Gal(b1-3)GlcNAc(b1-2)Man(a1-3)[Neu5Ac(a2-3)Gal(b1-3)GlcNAc(b1-2)Man(a1-6)]Man(b1-4)GlcNAc(b1-4)GlcNAc
Procedure, shortened: as §1

[21] = target: Neu5Ac(a2-3)Gal(b1-3)GlcNAc(b1-2)[Neu5Ac(a2-3)Gal(b1-3)GlcNAc(b1-4)]Man(a1-6)[Neu5Ac(a2-3)Gal(b1-3)GlcNAc(b1-2)Man(a1-3)]Man(b1-4)GlcNAc(b1-4)GlcNAc
Procedure, shortened: as §1

[22] = target: Neu5Ac(a2-3)Gal(b1-3)GlcNAc(b1-3)Gal(b1-3)GlcNAc
Procedure, shortened: as §1

[23] = target: Neu5Ac(a2-3)Gal(b1-3)GlcNAc(b1-3)Gal(b1-4)GlcNAc
Procedure, shortened: as §1

[24] = target: Neu5Ac(a2-3)Gal(b1-3)GlcNAc(b1-3)GalNAc
Procedure, shortened: as §1

[25] = target: Neu5Ac(a2-3)Gal(b1-3)GlcNAc(b1-6)GalNAc
Procedure, shortened: as §1

[26] = target: Neu5Ac(a2-3)Gal(b1-3)GlcNAc6S
Procedure, shortened: as §1

[27] = target: Neu5Ac(a2-3)Gal(b1-3)[Fuc(a1-4)]GlcNAc
Procedure, shortened: as §1

[28] = target: Neu5Ac(a2-3)Gal(b1-3)[Fuc(a1-4)]GlcNAc(b1-3)Gal(b1-3)[Fuc(a1-4)]GlcNAc
Procedure, shortened: as §1

[29] = target: Neu5Ac(a2-3)Gal(b1-3)[Fuc(a1-4)]GlcNAc(b1-3)Gal(b1-4)[Fuc(a1-3)]GlcNAc
Procedure, shortened: as §1

[30] = target: Neu5Ac(a2-3)Gal(b1-3)[GlcNAc(b1-6)]GalNAc
Procedure, shortened: as §1

[31] = target: Neu5Ac(a2-3)Gal(b1-3)[Neu5Ac(a2-6)]GalNAc
Procedure, shortened: as §1

[32] = target: Neu5Ac(a2-3)Gal(b1-3)[Neu5Ac(a2-6)]GlcNAc(b1-3)[Fuc(a1-3)[Gal(b1-4)]GlcNAc(b1-6)]Gal(b1-4)Glc
Procedure, shortened: as §1

[33] = target: Neu5Ac(a2-3)Gal(b1-3)]Neu5Ac(a2-3)Gal(b1-4)]GlcNAc
Procedure, shortened: as §1

B1: PLU (Photorhabdus luminiscence) (protein)
chain: HHHHHHENLYFQSSIVFASIDPRSNPLQTSSQNYVDIPGLKLDVSKYSNSPCLTALITLNIPTPYASGNNFPGGNFAIVTDQGEQLAYGGFTYSSKIPENSGRMPFTLVARYSLASNVSTIKAQWSNIRGSTVHIDSYASISAVIQCNQLV
[1]
  glycan array binding signal (z-score): -0.329
[2]
  glycan array binding signal (z-score): -0.198
[3]
  glycan array binding signal (z-score): -0.266
[4]
  glycan array binding signal (z-score): -0.256
[5]
  glycan array binding signal (z-score): -0.197
Man(a1-3)[Man(a1-6)]Man
  glycan array binding signal (z-score): -0.237
[6]
  glycan array binding signal (z-score): -0.207
[7]
  glycan array binding signal (z-score): -0.093
[8]
  glycan array binding signal (z-score): -0.268
[9]
  glycan array binding signal (z-score): -0.247
[10]
  glycan array binding signal (z-score): -0.286
Man(a1-6)Man
  glycan array binding signal (z-score): -0.273
Man(b1-4)GlcNAc
  glycan array binding signal (z-score): -0.33
MurNAc(b1-4)GlcNAc
  glycan array binding signal (z-score): -0.314
Neu5Ac(a2-3)Gal
  glycan array binding signal (z-score): -0.28
[11]
  glycan array binding signal (z-score): -0.339
[12]
  glycan array binding signal (z-score): -0.254
[13]
  glycan array binding signal (z-score): -0.357
[14]
  glycan array binding signal (z-score): -0.31
[15]
  glycan array binding signal (z-score): -0.329
[16]
  glycan array binding signal (z-score): -0.319
[17]
  glycan array binding signal (z-score): -0.264
[18]
  glycan array binding signal (z-score): -0.334
[19]
  glycan array binding signal (z-score): -0.297
[20]
  glycan array binding signal (z-score): -0.307
[21]
  glycan array binding signal (z-score): -0.104
[22]
  glycan array binding signal (z-score): -0.228
[23]
  glycan array binding signal (z-score): -0.357
[24]
  glycan array binding signal (z-score): -0.264
[25]
  glycan array binding signal (z-score): -0.281
[26]
  glycan array binding signal (z-score): -0.277
[27]
  glycan array binding signal (z-score): -0.309
[28]
  glycan array binding signal (z-score): -0.315
[29]
  glycan array binding signal (z-score): -0.181
[30]
  glycan array binding signal (z-score): -0.346
[31]
  glycan array binding signal (z-score): -0.203
[32]
  glycan array binding signal (z-score): -0.327
[33]
  glycan array binding signal (z-score): -0.2
